Structures can show the parent of a compound that is named as a salt. The list shows a part of the results. The data scatter; read single values as rough.
Tested on: T84
Assay: ALDHbr (CSC) cell proportion score relative to DMSO vehicle (ratio to DMSO); breast (SUM159) / gastric (MKN45) / pancreatic (PANC1) / colon cancer lines; ALDHbr cells have high ALDH activity and are rich in cancer stem cells (CSC); higher = more CSC (ALDHbr) cells remaining
Settings: 10 µM; 72 h
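Also: High-content imaging of ALDEFLUOR-stained cells with Hoechst-labelled nuclei in 384-well plates, triplicate wells, scored as Z-score against 0.1% DMSO vehicle, negative meaning fewer ALDHbr cells.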

Row | Structure (SMILES) | ALDHbr
1 | O=C(CCCN1CCC(n2c(=O)[nH]c3ccccc32)CC1)c1ccc(F)cc1 [Benperidol] | 0.719
2 | CC(C)(C)NCC(O)c1ccccc1Cl (stereo unspecified) [Tulobuterol] | 1.03
3 | CN[C@@H]1[C@@H](O)[C@@H](O[C@@H]2[C@@H](O)[C@H](O[C@H]3O[C@H](CN)CC[C@H]3N)[C@@H](N)C[C@H]2N)OC[C@]1(C)O.CN[C@@H]1[C@@H](O)[C@@H](O[C@@H]2[C@@H](O)[C@H](O[C@H]3O[C@H]([C@@H](C)N)CC[C@H]3N)[C@@H](N)C[C@H]2N)OC[C@]1(C)O.CN[C@@H]1[C@@H](O)[C@@H](O[C@@H]2[C@@H](O)[C@H](O[C@H]3O[C@H]([C@@H](C)NC)CC[C@H]3N)[C@@H](N)C[C@H]2N)OC[C@]1(C)O [Gentamicine sulfate] | 0.927
4 | CC[C@@H](C(N)=O)N1CCCC1=O [Levetiracetam] | 1.17
5 | C=C(C)[C@@H]1[C@H]2OC(=O)[C@@H]1[C@]1(O)C[C@H]3O[C@]34C(=O)O[C@H]2[C@]14C [Picrotoxinin] | 1.01
6 | Oc1cc(Cl)ccc1Oc1ccc(Cl)cc1Cl [Triclosan] | 1
7 | CC(Cc1ccc(O)cc1)NCC(O)c1cc(O)cc(O)c1 (stereo unspecified) [Fenoterol hydrobromide] | 0.935
8 | C=CC[C@]1(O)CC[C@H]2[C@@H]3CCC4=CC(=O)CCC4=C3C=C[C@@]21C [Altrenogest] | 1.14
9 | COc1ccc(OC)c(C(O)C(C)N)c1 (stereo unspecified) [Methoxamine hydrochloride] | 0.989
10 | Cc1cc(C(C#N)c2ccc(Cl)cc2)c(Cl)cc1NC(=O)c1cc(I)cc(I)c1O (stereo unspecified) [Closantel] | 0.984
11 | CC(C)(C)NCC(O)c1cc(Cl)c(N)c(Cl)c1 (stereo unspecified) [Clenbuterol hydrochloride] | 0.964
12 | CNC(=O)Oc1ccc2c(c1)[C@]1(C)CCN(C)[C@@H]1N2C [Eserine hemisulfate salt] | 0.993
13 | CN1[C@@H]2C[C@@H](OC(=O)[C@H](CO)c3ccccc3)C[C@H]1[C@@H]1O[C@@H]12 [Scopolamine hydrochloride] | 1.05
14 | CCN[C@@H](C)Cc1cccc(C(F)(F)F)c1 [Dexfenfluramine hydrochloride] | 1.01
15 | O=C(CCCN1CCC2(CC1)C(=O)NCN2c1ccccc1)c1ccc(F)cc1 [Spiperone] | 0.55
16 | CN1C[C@H](C(=O)N[C@]2(C)O[C@@]3(O)[C@@H]4CCCN4C(=O)[C@H](Cc4ccccc4)N3C2=O)C[C@@H]2c3cccc4[nH]cc(c34)C[C@H]21 [Dihydroergotamine tartrate] | 1.01

Row | Structure (SMILES) | ALDHbr
17 | CN1C[C@H](CNC(=O)OCc2ccccc2)C[C@@H]2c3cccc4c3c(cn4C)C[C@H]21 [Metergoline] | 0.268
18 | C#C[C@]1(O)CC[C@H]2[C@@H]3CCC4=CC(=O)CCC4=C3C=C[C@@]21CC [Gestrinone] | 0.778
19 | Clc1ccc(C(OCCN2CCCCC2)c2ccccc2)cc1 (stereo unspecified) [Cloperastine hydrochloride] | 0.6
20 | O=c1[nH]c2ccccc2n1CCCN1CCC(n2c(=O)[nH]c3cc(Cl)ccc32)CC1 [Domperidone] | 0.883
21 | Fc1ccc(C(OCCN2CCN(CCCc3ccccc3)CC2)c2ccc(F)cc2)cc1 | 0.401
22 | CC(C)CC(N(C)C)C1(c2ccc(Cl)cc2)CCC1 (stereo unspecified) [Sibutramine hydrochloride] | 0.995
23 | C[C@]12CCC(=O)C=C1CC[C@@H]1[C@@H]2C(=O)C[C@]2(C)C(=O)CC[C@@H]12 [Adrenosterone] | 0.891
24 | NCC(CC(=O)O)c1ccc(Cl)cc1 (racemic) [Baclofen (R,S)] | 0.958
25 | C[C@]12CC[C@@H](O)C[C@@H]1CC[C@@H]1[C@@H]2CC[C@]2(C)C(=O)CC[C@@H]12 [Androsterone] | 1.1
26 | CCCC(C)(COC(N)=O)COC(=O)NC(C)C (stereo unspecified) [Carisoprodol] | 1.09
27 | CC(=O)OCC(=O)[C@H]1CC[C@H]2[C@@H]3CC[C@H]4C[C@H](O)CC[C@]4(C)[C@H]3C(=O)C[C@]12C [Alfadolone acetate] | 0.953
28 | C[C@H](N)[C@H](O)c1ccc(O)c(O)c1 [Levonordefrin] | 0.949
29 | NC(=O)C[S+]([O-])C(c1ccccc1)c1ccccc1 (stereo unspecified) [Modafinil] | 0.852
30 | NC(=O)CN1CCCC1=O [Piracetam] | 0.825
31 | CC(O)(CS(=O)(=O)c1ccc(F)cc1)C(=O)Nc1ccc(C#N)c(C(F)(F)F)c1 (stereo unspecified) [Bicalutamide] | 1.21

Source: the supplement of paper PMC11880418
